The values that follow come from US20090202429A1 (TRUSTEES OF COLUMBIA UNIVERSITY IN THE CITY OF NEW YORK, published 2009).

B4: human platelet glycoprotein Ib alpha (GPIb alpha), on human platelets (receptor)
chain: not shown
notes: whole, on cells; also called GPIbα; human GPIb alpha

Experiment [1] concerns the target B4. The experiment in a line: panel A: coated beads on surface-immobilized human platelets in flow, ln of bead tethering events against time; shear stress 2.0 dyn cm-2; R2 0.95. As for the experimental part: (§1) The duration of these interactions are measured by recording images from a Nikon X60 DIC objective (oil immersion) viewed at a frame rate of 235 fps (Speed Vision Technologies, San Diego, Calif.) and subjected to wall shear stresses (WSS) ranging from 0.5 to 3.0 dyn cm⁻². The cellular off-rates are determined by plotting the natural log of the number of VWF-A1 coated microspheres that interacted as a function of time after the initiation of tethering, the slope of the line=−koff (s⁻¹) which is the inverse of the bond lifetime. The force acting on the tether bond was calculated from force balance equations as stated above and koff plotted as a function of these forces.

Experiment [2] addresses B4. The experiment in a line: panel D: VWF-A1 coated beads on immobilized platelets labelled 'unfixed' (metabolically inactivated), WSS 1.5 dyn cm-2; R2 0.98. As for the experimental part: as §1
Experiment [3] has as its target B4. Description: panel C: VWF-A1 coated beads on surface-immobilized human platelets in flow, ln of tethering events against interaction time; WSS 1.5 dyn cm-2; R2 0.96. The protocol:
as §1

In experiment [4] the target is B4. The experiment in a line: panel C: VWF-A1 coated beads on surface-immobilized human platelets in flow, ln of tethering events against interaction time; WSS 1.0 dyn cm-2; R2 0.97. The protocol: as §1
Experiment [5] has as its target B4. The experiment in a line: panel C: VWF-A1 coated beads on surface-immobilized human platelets in flow, ln of tethering events against interaction time; WSS 0.5 dyn cm-2; R2 0.98. As for the experimental part: as §1
Experiment [6] addresses B4. Description: panel A: coated beads on surface-immobilized human platelets in flow, ln of bead tethering events against time; shear stress 0.5 dyn cm-2; R2 0.94. As for the experimental part:
The cellular off-rates are determined by plotting the natural log of the number of VWF-A1 coated microspheres that interacted as a function of time after the initiation of tethering, the slope of the line=−koff (s⁻¹) which is the inverse of the bond lifetime. The force acting on the tether bond was calculated from force balance equations as stated above and koff plotted as a function of these forces.
The use of beads with one uniform size and shape permits determination of the relationship between wall shear stress and the force directly acting on the GPIb alpha-VWF-A1 tether bond (Fb), a parameter difficult to estimate for discoid-shaped objects such as platelets. […] This antibody was made by immunizing Fischer 344 rats (3-4 months old) with recombinant WT protein. […] Spleens from animals with the highest antibody titers were harvested and splenocytes fused with Sp2/0 mouse myeloma cells (54).

Experiment [7] concerns the target B4. The experiment in a line: panel A: coated beads on surface-immobilized human platelets in flow, ln of bead tethering events against time; shear stress 3.0 dyn cm-2; R2 0.97. As for the experimental part: as §1
Experiment [8] has as its target B4. Description: panel D: VWF-A1 coated beads on immobilized platelets labelled 'fixed' (paraformaldehyde), WSS 1.5 dyn cm-2; R2 0.98. The protocol: as §1
Experiment [9] addresses B4. Description: human VWF-A1 coated beads on surface-immobilized human platelets, ln of bead tethering events against time; wall shear stress 1 dyn cm-2; R2 0.97. As for the experimental part: as §1
The target of experiment [10] is T1, murine platelet glycoprotein Ib alpha (GPIb alpha), on mouse platelets (mouse, UniProt O35930 17-734).
T1 construct: whole, on cells; also called murine GPIb alpha; murine platelets
T1 sequence (looked up): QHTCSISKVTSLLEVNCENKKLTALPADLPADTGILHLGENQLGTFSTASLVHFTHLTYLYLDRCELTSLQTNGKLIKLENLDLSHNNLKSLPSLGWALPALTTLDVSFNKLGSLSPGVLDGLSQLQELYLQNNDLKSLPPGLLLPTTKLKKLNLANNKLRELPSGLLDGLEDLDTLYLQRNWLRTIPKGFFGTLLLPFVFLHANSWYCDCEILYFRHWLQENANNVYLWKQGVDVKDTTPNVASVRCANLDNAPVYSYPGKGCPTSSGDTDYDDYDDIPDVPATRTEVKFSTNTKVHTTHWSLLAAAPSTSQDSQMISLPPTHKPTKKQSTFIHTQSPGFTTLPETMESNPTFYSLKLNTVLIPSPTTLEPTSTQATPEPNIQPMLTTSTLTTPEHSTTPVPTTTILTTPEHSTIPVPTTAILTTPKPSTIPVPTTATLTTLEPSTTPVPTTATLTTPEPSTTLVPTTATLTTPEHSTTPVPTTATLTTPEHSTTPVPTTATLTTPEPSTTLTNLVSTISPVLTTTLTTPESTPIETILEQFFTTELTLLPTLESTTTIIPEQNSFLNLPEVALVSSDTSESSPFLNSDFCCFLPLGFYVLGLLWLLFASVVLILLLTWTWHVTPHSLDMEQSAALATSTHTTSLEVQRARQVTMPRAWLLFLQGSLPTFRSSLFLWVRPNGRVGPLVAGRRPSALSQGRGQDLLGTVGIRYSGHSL
Description: murine platelets perfused over coated mutant VWF-A1, wall shear rate 800 s-1; the sheet states that H563R corresponds to H1326R.

Experiment [11] deals with T2, human plasma VWF (purified from or captured out of human plasma) (human, UniProt P04275 764-2813).
T2 construct: Plasma-derived multimeric VWF; also called human VWF; native human plasma VWF
Description: panel B: human platelets on surface-immobilized plasma VWF in flow, 1600 s-1.

B1: recombinant human VWF-A1 protein, wild type (amino acid […], made in bacteria, His tag) (ligand)
chain: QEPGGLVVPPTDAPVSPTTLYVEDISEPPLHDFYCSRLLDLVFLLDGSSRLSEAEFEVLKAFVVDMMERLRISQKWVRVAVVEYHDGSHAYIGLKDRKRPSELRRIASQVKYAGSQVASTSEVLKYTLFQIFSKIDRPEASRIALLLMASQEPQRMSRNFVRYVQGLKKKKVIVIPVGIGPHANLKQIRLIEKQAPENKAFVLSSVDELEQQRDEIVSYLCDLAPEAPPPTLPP
modifications: single intra-chain disulfide bond between residues 1272 and 1458
notes: also called H VWF-A1; WT human VWF-A1; not shown: amino-terminal vector-derived tag with 6x histidine (10 amino acids from pQE9, told for the murine construct)
Turning to B1, the koff in [1] was 8.1 s⁻¹; in [2], 7.48 s⁻¹; in experiment [3] it was 7.35 s⁻¹; in experiment [4], 6.54 s⁻¹; in experiment [5], 4.92 s⁻¹; in experiment [6] it was 5.1 s⁻¹. For the same molecule, the off-rate constant (koff) was determined as 9.6 s⁻¹ in [7] and 7.79 s⁻¹ in [8].

B2: recombinant human VWF-A1 protein with the type 2B mutation Ile1309Val (1309I>V) (ligand)
chain: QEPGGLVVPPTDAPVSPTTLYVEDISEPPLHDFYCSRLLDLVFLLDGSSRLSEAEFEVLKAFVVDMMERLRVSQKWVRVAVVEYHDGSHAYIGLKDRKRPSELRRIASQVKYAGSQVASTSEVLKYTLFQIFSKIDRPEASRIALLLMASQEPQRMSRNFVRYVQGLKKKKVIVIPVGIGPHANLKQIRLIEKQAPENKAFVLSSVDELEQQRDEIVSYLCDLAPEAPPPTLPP
notes: also called type 2B mutation alone; not shown: amino-terminal vector-derived tag with 6x histidine
For B2, in experiment [9], the koff is 0.98 s⁻¹.

B3: recombinant human VWF-A1 protein with 1326H>R (ligand)
chain: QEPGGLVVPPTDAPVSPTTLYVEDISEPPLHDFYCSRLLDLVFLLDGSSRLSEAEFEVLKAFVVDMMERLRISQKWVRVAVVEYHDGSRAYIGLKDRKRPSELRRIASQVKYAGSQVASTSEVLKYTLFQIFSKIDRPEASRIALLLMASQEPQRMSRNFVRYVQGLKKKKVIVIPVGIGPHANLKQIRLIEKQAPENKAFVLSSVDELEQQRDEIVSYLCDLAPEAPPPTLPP
notes: also called His1326Arg; not shown: amino-terminal vector-derived tag with 6x histidine
On to B3, for which the binding result in [10] was “binds”.

Take B4: the binding result in experiment [11] is recorded as “binds”.
